The full ranking holds about 33,000 sequences; the median of “E-score (-0.5 to 0.5)” is about -0.012, and the highest 2% start at about 0.29. This is one part of the list.
target: T1, Ybr033w (UniProt P38073); experiment: PBM E-score (8-mer binding enrichment) (E-score (-0.5 to 0.5)); higher = stronger / more preferred TF binding; most listed sequences are background and not binding sites; settings: protein concentration: 200 nM; construct: GST-full length
T1 sequence: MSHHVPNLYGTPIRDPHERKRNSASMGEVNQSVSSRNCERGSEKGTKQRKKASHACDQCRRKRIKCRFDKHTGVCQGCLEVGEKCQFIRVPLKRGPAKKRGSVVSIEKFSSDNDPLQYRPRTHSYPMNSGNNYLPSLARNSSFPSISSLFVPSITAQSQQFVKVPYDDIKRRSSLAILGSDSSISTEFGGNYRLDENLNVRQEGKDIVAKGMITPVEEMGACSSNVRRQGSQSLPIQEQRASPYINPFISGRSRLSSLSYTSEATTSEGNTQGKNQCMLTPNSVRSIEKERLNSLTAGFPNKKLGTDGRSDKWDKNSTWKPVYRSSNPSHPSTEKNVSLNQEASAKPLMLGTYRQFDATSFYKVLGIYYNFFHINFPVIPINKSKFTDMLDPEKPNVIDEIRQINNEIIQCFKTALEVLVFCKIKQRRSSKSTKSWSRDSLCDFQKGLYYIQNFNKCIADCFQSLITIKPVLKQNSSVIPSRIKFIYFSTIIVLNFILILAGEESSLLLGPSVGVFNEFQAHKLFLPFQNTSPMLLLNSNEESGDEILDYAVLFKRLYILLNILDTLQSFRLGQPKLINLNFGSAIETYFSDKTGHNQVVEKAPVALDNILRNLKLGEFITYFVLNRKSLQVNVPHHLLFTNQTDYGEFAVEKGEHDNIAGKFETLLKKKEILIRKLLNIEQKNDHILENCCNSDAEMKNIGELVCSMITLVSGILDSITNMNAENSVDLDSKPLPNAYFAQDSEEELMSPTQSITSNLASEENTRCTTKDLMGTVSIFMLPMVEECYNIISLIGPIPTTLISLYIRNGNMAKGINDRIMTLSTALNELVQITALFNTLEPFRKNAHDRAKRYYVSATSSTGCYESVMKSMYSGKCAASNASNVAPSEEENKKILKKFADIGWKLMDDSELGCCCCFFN
Summary of the method: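 Detection of bound protein used fluorescent anti-GST, with scans normalised by masliner. The proteins were GST-tagged yeast transcription factors applied at about 100-200 nM to universal all-10-mer Agilent arrays made double-stranded by primer extension. Each ungapped eight-base word, pooled with its reverse complement, was scored with an E-score from the Universal PBM Analysis Suite.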

Sequence | PBM E-score
GTTCGGTA | -0.0289
TGGCCGAA | -0.0761
AACGGATG | -0.0912
CGTCTACA | -0.162
GTTACATA | 0.151
ACTTTGTG | 0.148
ACGCGGGA | -0.00531
GCCTGCAC | -0.251
CGCCACGA | -0.129
ACCAAATA | 0.232
AGTCGCTC | 0.0213
ATCTGAAC | 0.0865
ACTTCTGG | -0.0772
CAGCATTC | 0.078
CATGACAC | 0.168
CGATGCTA | -0.0636
CAGGGTGA | -0.214
CGTGCGCA | -0.213
CCCTAAGC | -0.123
CCAACATA | 0.257
CAAGTCTG | -0.193
ATCGTCCC | 0.0512
AAGCGTCG | -0.209
GTTGCCGA | 0.00885
GACCGAGA | 0.00789

Sequence | PBM E-score
AACCTCGC | 0.00532
CCCTCCAG | -0.248
TAACTTGA | 0.164
CGTCTTCC | -0.215
GCCATCAA | -0.129
CCTACGCA | -0.0463
AGCCTACT | -0.0215
CTCCATTA | 0.0023
CGTGCCAG | -0.266
AAGGTGAT | 0.0131
AGGCAGCA | 0.0126
CCTTAGAC | -0.0534
ACCACAAA | 0.105
CCGACGAC | 0.00324
AATATAAT | 0.236
CGGCTCGC | 0.0918
TTAGCGAA | 0.0434
CATTGAAG | -0.0671
CAGCAAAC | -0.0765
GATATGTA | 0.22
CCCTACTA | -0.101
CGATACGA | -0.104
ACTTTTAT | 0.167
GGGTAATA | 0.103
ATCATTTG | 0.22

Sequence | PBM E-score
TAGCGTGA | 0.00864
TGGGTACA | -0.0517
AATAAGAT | 0.142
CCCCTACC | -0.257
ACAAAAAG | 0.106
ATGCTGAC | 0.0401
GAAGTAGA | 0.238
ACAAGCAT | 0.09
AGCCACAG | -0.314
TCACTGCA | 0.208
TAAACGGA | 0.266
CGATGCTC | -0.222
CTTACTGA | 0.0283
CGTTATGC | 0.0079
CGGCCTAC | 0.00798
ACTTTGTA | 0.275
CCCGATAG | -0.119
ATCTACAC | 0.132
CAATTCCA | -0.0696
CAGAAAGC | -0.0867
ACGTCGAA | 0.0628
GGTTTAAA | 0.0983
AAGTCCGT | -0.293
GTGCACAA | -0.0193
AGTACCGC | -0.0772

Sequence | PBM E-score
ATGGTCGG | -0.0504
ATTGTCTG | 0.221
AGGCATAA | -0.0986
CTGCACTA | 0.139
CAATATAG | 0.115
AAATTACT | 0.333
CTGCTAGC | -0.137
CTGAATTA | 0.219
AGCGCAAT | 0.142
AACTCTGA | 0.162
AGATCTTG | -0.00564
ACTAGGAC | 0.0302
GAAAGTGA | -0.02
AACCAGAA | 0.0437
CCGACCAC | -0.0258
ATATTTGC | 0.222
AGCAGATC | 0.152
ATCGCAGG | -0.0752
GAGCGTGC | -0.0791
AGACGCAA | 0.0687
CGGGCGAG | -0.14
ATCGCCTG | -0.364
AAATAACG | 0.232
GCAGAGGC | -0.373
GGGCAGAA | 0.161

Sequence | PBM E-score
GGATTCTA | -0.0352
GGATGTAA | 0.163
ATTGAGAC | 0.147
CACTTTAG | 0.112
ATCTGTTC | 0.0791
CTCGTAGC | -0.0753
GGCTCAAC | -0.0831
CATATCTA | 0.279
TGTGCAAA | -0.0555
CGTCTTAC | -0.0604
CCCTTACG | -0.388
CCGAAATC | 0.0136
AGCGGGTA | -0.11
CGTCTCCC | -0.199
AACACGCA | 0.0222
AGTACAAT | 0.302
GCATGCGC | -0.0131
AGACTTGA | 0.022
CATGCCCC | -0.22
TGTTGGAA | 0.193
CCACGAGG | -0.0481
AAATATAA | 0.305
CTGTCCAC | -0.0832
ACTACAGC | -0.058
CCGGGCGA | -0.226

Sequence | PBM E-score
AAGCAGGG | -0.0605
GCATAATA | 0.198
AGGACGGA | -0.133
AGCGTCGC | -0.0934
ATGACACG | 0.0399
AAACCGAG | -0.0114
GGTGGGGA | 0.0759
AAACTGTA | 0.174
ACAATTTG | 0.132
AAACGGCG | 0.0866
CACTAAAC | 0.16
AGTGTAAT | 0.125
AGCGAGGA | -0.0245
CCGGGCGC | -0.172
CATACGGA | 0.00688
CATGAAAG | 0.0847
AGGGCAAA | -0.138
ATGTGTTC | 0.194
GCGCAAAC | -0.0469
GCTGCAAC | -0.086
GCCAGCAC | -0.127
GTTAGGAA | 0.0919
TCGACGAA | 0.104
CGCACCCG | 0.021
TCCGGAAA | 0.298

Sequence | PBM E-score
CACATGAG | -0.0611
ATGCCCGC | -0.12
ACTTAAAC | 0.267
TAGACGCA | -0.0494
CGAGCGCA | -0.0144
CAACTACC | -0.0259
GCCCTTTA | -0.199
GCTTGTTA | 0.113
ACCACCAT | -0.092
AATAAGCT | 0.209
GATTTAAA | -0.00582
CGTCTTGC | -0.00231
TACTTTAA | 0.103
ACAAGGGG | -0.316
TTCACGAA | -0.109
ATGGCTTA | 0.00309
ACCTATCG | 0.00016
GGCCGATA | -0.0928
ATCAAGAT | 0.151
AGGGCTTC | -0.0739
GCCATTAC | -0.0208
CCAATATA | -0.0772

From the supplement of paper PMC3334620
